Reference: PubChem BioAssay AID504832 (National Center for Advancing Translational Sciences (NCATS), 2011)
Out of some 310,000 compounds screened, about 18,000 (5.8%) were called active. The shares of active, inactive and inconclusive entries below differ from those in the screen. Calls come from the whole dose curve; as a rule, active = well fitted inhibition curve with a large enough effect; inconclusive = small, poorly fitted or top-dose-only effect, or another doubt; inactive = no such curve, though single readings can be large or run the other way. No potency is given beside an inconclusive call; the fits are too rough.

Assay: Primary qHTS for delayed death inhibitors of the malarial parasite plastid, 48 hour incubation
Conditions: P. falciparum luciferase growth in erythrocytes; series mostly up to 28.7 µM; activity change, negative = inhibition: at the top concentration
Procedure, shortened: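 Cell-based growth assay: transgenic P. falciparum expressing firefly luciferase, cultured in red cells within RPMI 1640 containing 0.5% w/v Albumax, 24 mM bicarbonate and gentamycin. A drop in luciferase activity indicates inhibition.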
% is set by controls: 0 for no effect and ±100 for the full control effect; potency is the fitted concentration of half-maximal effect; tags give direction and shape of the fitted curve.

| SMILES | Potency | activity change, negative = inhibition |
| --- | --- | --- |
| Cc1cc(NC(=O)NC2(C(F)(F)F)Oc3ccc(Cl)cc3O2)no1 (stereo unspecified) | inconclusive [inhibitor, single point] | – |
| NNc1ncnc2c1cnn2-c1ccccc1 | inconclusive [inhibitor, single point] | – |
| CN1CCc2ccc(NC(=O)c3ccc(C(F)(F)F)cc3)cc2C1 | inconclusive [inhibitor, single point] | – |
| CC(C)[C@H](NC(=O)C1CCC(CNC(=O)[C@@H]2CCCN2C(=O)OC(C)(C)C)CC1)C(=O)O (stereo partly specified) | – | inactive: -8.99% |
| COc1cc(C(=O)NCc2cccc3ccccc23)cc(Cl)c1OC | inconclusive [inhibitor, partial curve, poor fit] | – |
| O=C(NC(Cc1c[nH]c2ccccc12)C(=O)N/N=C/c1cccc2ccccc12)c1cccs1 (stereo unspecified) | inconclusive [inhibitor, partial curve, poor fit] | – |
| COc1ccc(Br)cc1C(=O)N/N=C/c1ccc2c(c1)n(C)c(=O)n2C | inconclusive [inhibitor, partial curve, poor fit] | – |
| COC(=O)c1ccccc1NC(NC(=O)c1ccco1)C(=O)c1ccc(C)cc1 (stereo unspecified) | – | inactive: 10.8% |
| O=C(NCC1(N2CCCCC2)CCCCC1)c1ccc(NS(=O)(=O)c2ccc(F)cc2)cc1 | active: 14.7 µM | – |
| O=C1c2ccccc2C(=O)N1CC1=CCS(=O)(=O)C1 | – | inactive: -8.31% |
| CCOc1[nH]n(-c2ccccc2)c(=O)c1C=NCc1ccncc1 | inconclusive [inhibitor, full curve, poor fit] | – |
| O=C1CCc2cc(S(=O)(=O)NC3CCCCC3)ccc2N1 | – | inactive: -21.6% |
| Cc1ccccc1Nc1c([N+](=O)[O-])cncc1[N+](=O)[O-] | inconclusive [inhibitor, single point] | – |
| CCOC(=O)c1cc(-c2csc(N/N=C/c3ccccc3Cl)n2)on1 | inconclusive [inhibitor, partial curve, poor fit] | – |
| CS(=O)(=O)c1ccc(Cl)c(NC(=O)COC(=O)Cc2c[nH]c3ccccc23)c1 | – | inactive: 6.45% |
| COc1cc(Cl)ccc1OCc1cc(C(=O)N2C[C@@H]3CCC[C@H]2C3)no1 | – | inactive: 23% |
| Cc1ccc(N(C(=O)CCCC(=O)Nc2ccccn2)C(C(=O)NC2CCCC2)c2ccc(O)cc2)cc1C (stereo unspecified) | inconclusive [inhibitor, single point] | – |
| O=c1c2c3c(sc2nc2n1CCCS2)CCCC3 | – | inactive: 56.7% |
| O=C(COc1ccc(Cl)cc1)NCc1nnc(SCC(=O)NC2CCCCC2)o1 | inconclusive [inhibitor, full curve, poor fit] | – |
| Cc1cccc(C)c1OCC(O)Cn1c2ccccc2c2ccccc21 (stereo unspecified) | active: 10.4 µM | – |
| CC(=O)Nc1cccc(/C(C)=N/NC(=O)c2ccc(O)cc2)c1 | – | inactive: 21.1% |
| Oc1ccccc1C1=Nc2ncnn2C(c2ccc(F)cc2)C1 (stereo unspecified) | – | inactive: 32.5% |
| C#CCSc1nc2sc3c(c2c(=O)n1C)CCC3 | inconclusive [inhibitor, full curve, poor fit] | – |

| SMILES | Potency | activity change, negative = inhibition |
| --- | --- | --- |
| O=C(N/C(=C/C=C\c1ccccc1)C(=O)N1CCOCC1)c1ccc(Br)cc1 | inconclusive [inhibitor, partial curve] | – |
| S=c1nc(C2CCCCC2)[nH]c2ccccc12 | – | inactive: -13% |
| COc1ccc(-n2cnnc2SC(C)c2nc3sc(C)c(C)c3c(=O)[nH]2)cc1 (stereo unspecified) | inconclusive [inhibitor, single point] | – |
| CCc1ccc(OCC(=O)NC(NC(=S)Nc2ccc(Cl)cc2)C(Cl)(Cl)Cl)cc1 (stereo unspecified) | inconclusive [inhibitor, single point] | – |
| Cc1ccc(-c2nnc(SCC(=O)NCC3CCCO3)nc2-c2ccc(C)cc2)cc1 (stereo unspecified) | active: 14.7 µM | – |
| N#Cc1ccc(Oc2ccc(-c3cnc4ccccc4n3)cc2)cc1C#N | – | inactive: 10.6% |
| C/C1=C\CCC2C(/C=C(\C)CC1)OC(=O)C2CN1CCCCC1 (stereo unspecified) | inconclusive [inhibitor, single point] | – |
| CCOC(=O)/C=C(C)\C=C\c1c[nH]c2ccccc12 | active: 13.1 µM | – |
| CC(C)c1ccc(OCC(=O)Nc2cccc3c2CCCC3)cc1 | – | inactive: 0% |
| CCCn1c(C)nc2c(c1=O)c1nc3ccccc3nc1n2CCC1=CCCCC1 | inconclusive [inhibitor, partial curve] | – |
| COc1ccc(-c2cc(C(=O)NC(C)c3ccccn3)c3ccccc3n2)cc1OC (stereo unspecified) | inconclusive [inhibitor, single point] | – |
| CC1(C)C(c2ccccc2)=NC(c2cccnc2)=[N+]1[O-] | inconclusive [inhibitor, partial curve, poor fit] | – |
| CCN(C(=O)COC(=O)c1cccc(S(=O)(=O)NCc2ccccc2)c1)c1ccccc1 | – | inactive: -10.5% |
| COc1ccc(S(=O)(=O)N2CCN(C(=O)NCc3ccc(C)cc3)CC2)cc1 | inconclusive [inhibitor, partial curve, poor fit] | – |
| CCCCc1[nH]c(=O)c(C#N)c2c1CSC(C)(C)C2 | – | inactive: 9.02% |
| O=C(CCNS(=O)(=O)c1ccccc1C(F)(F)F)N1CCN(S(=O)(=O)c2cccc(F)c2)CC1 | inconclusive [inhibitor, single point] | – |
| Cc1ccc(S(=O)(=O)N(C)C)cc1NC(=O)COC(=O)C1CC1 | inconclusive [inhibitor, single point] | – |
| CC1=CC2=NC(=O)/C(=C\c3cc(C)n(-c4cccc(Cl)c4)c3C)C(=N)N2O1 | inconclusive [inhibitor, full curve, poor fit] | – |
| O=C(c1ccc(S(=O)(=O)Cc2cc(F)ccc2F)c([N+](=O)[O-])c1)N1CCCC1 | – | inactive: -29.5% |
| COc1ccc2nc(NC(=O)c3c(C)noc3C)sc2c1 | – | inactive: 184% |
| Cc1ccc2cc(C#N)c(NCCCNC(=O)C3CCCO3)nc2c1 (stereo unspecified) | inconclusive [inhibitor, single point] | – |
| O=C(Cc1nc2ccccc2[nH]c1=O)c1ccccc1 | – | inactive: 262% |
| CCOC(=O)c1c(C)nn(-c2ccc(NC(=O)/C=C/C(=O)O)cc2)c1C | – | inactive: 2.77% |
